In publication PMC7290032:
These are yes or no findings as the source states them, for the method shown. In cells and extracts the contact can be indirect. Some binding calls cover weakened binding; strength is not graded here.

By UniProt entry, the sequences of proteins in these tests, tags left out.
UniProt P27694: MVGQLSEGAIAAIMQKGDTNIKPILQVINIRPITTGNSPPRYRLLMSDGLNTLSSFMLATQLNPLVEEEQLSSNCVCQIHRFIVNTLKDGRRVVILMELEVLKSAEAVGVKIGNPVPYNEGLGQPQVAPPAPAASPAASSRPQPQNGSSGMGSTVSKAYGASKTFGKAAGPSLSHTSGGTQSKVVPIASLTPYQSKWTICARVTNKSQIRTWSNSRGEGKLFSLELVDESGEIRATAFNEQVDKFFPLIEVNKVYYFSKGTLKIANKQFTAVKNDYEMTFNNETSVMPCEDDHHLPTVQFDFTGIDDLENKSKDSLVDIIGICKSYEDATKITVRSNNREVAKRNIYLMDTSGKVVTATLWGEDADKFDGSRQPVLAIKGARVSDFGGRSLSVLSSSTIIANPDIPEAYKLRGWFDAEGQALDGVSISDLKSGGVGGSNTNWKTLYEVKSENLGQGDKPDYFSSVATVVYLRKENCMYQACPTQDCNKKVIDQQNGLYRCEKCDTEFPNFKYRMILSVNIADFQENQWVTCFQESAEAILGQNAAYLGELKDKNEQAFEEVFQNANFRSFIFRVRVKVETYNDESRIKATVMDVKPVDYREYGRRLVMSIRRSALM

Molecular target: HA-RPA1 (UniProt P27694)
Test: co-IP; anti-HA agarose from lysates of HEK293T cells expressing the HA-tagged bait; 50 mM Tris-HCl pH 7.5, 1% NP40, 150 mM NaCl, 4 h at 4 °C; western blot of endogenous partners

B1: MCM8IP (endogenous) (protein, UniProt Q8N3J3 1-647)
chain: MACSLQKLFAVEEEFEDEDFLSAVEDAENRFTGSLPVNAGRLRPVSSRPQETVQAQSSRLLLLHPTAPSEALGLPDLDLCLPASSTPSADSRPSCIGAAPLRPVSTSSSWIGNQRRVTVTEVLRETARPQSSALHPLLTFESQQQQVGGFEGPEQDEFDKVLASMELEEPGMELECGVSSEAIPILPAQQREGSVLAKKARVVDLSGSCQKGPVPAIHKAGIMSAQDESLDPVIQCRTPRPPLRPGAVGHLPVPTALTVPTQQLHWEVCPQRSPVQALQPLQAARGTIQSSPQNRFPCQPFQSPSSWLSGKAHLPRPRTPNSSCSTPSRTSSGLFPRIPLQPQAPVSSIGSPVGTPKGPQGALQTPIVTNHLVQLVTAASRTPQQPTHPSTRAKTRRFPGPAGILPHQQSGRSLEDIMVSAPQTPTHGALAKFQTEIVASSQASVEEDFGRGPWLTMKSTLGLDERDPSCFLCTYSIVMVLRKQAALKQLPRNKVPNMAVMIKSLTRSTMDASVVFKDPTGEMQGTVHRLLLETCQNELKPGSVLLLKQIGVFSPSLRNHYLNVTPNNLVHIYSPDSGDGSFLKPSQPFPKDSGSFQHDVAAKPEEGFRTAQNLEAEASPEEELPEADDLDGLLSELPEDFFCGTSS
  binding: binds
